Test results published in PubChem BioAssay (NCATS).
Where “and” joins values, the source holds several entries; their conditions need not be identical. Equal entries are not always repeated. Some of the results follow. Further columns of the screen follow, without active or inactive calls. The list favours compounds with an active or inconclusive main result. The note in brackets gives the kind of curve behind each potency; many fits are weak.

Assay: qHTS Assay for Lipid Storage Modulators (AID 1519)
Details: Drosophila S3 cells, BODIPY lipid droplet/cell ratio, laser cytometry, cells loaded with oleic acid; for AC50: measured here: lipid (BODIPY) channel AC50
In short: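 Cells seeded at 5,000 per well were treated with compounds over a concentration series and loaded with oleic acid (400 uM, as added). Lipid droplet fluorescence (488 nm excitation, 500-530 nm channel) was read by laser-scanning cytometry and normalized to 20 uM Triacsin C.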

[1] = measured here: cell count channel max response
[2] = measured here: lipid channel max response
Tags describe the fitted curve by direction and shape.

| SMILES | max response [1] | max response [2] | AC50 |
| --- | --- | --- | --- |
| CN[C@H](CC(=O)O)C(=O)O | 51.3% | 51.8% | – |
| O=C(N/N=C\c1ccccc1O)c1ccccc1O | 89.6% | 99.1% | – |
| COc1cc2c(CCNC(C)=O)c[nH]c2cc1O | 48.4% | 48.2% | – |
| C=C1C(=O)OC2C1CC/C(C)=C/CCC1(C)OC21 (stereo not given) | -19% | -57.5% | – |
| C[N+](C)(C)CCCCCCCCCC[N+](C)(C)C | 44.8% | 44.5% | – |
| COC(=O)C(N)Cc1ccc(Cl)cc1 (stereo not given) | 42.1% | 38.9% | – |
| CN(C)c1ccc(/C=C2/C(=O)Nc3ccccc32)cc1 | 9.9% | -13.6% | – |
| c1ccc(CNc2ccnc(-c3ccc4c(c3)OCO4)n2)cc1 | -6.38% | -0.434% | 1 µM [rising, single point] |
| COc1ccc(Oc2ncc3nc(-c4ccc(F)cc4)c(=O)n(CCC#N)c3n2)cc1 | 10.2% | 15% | 2.82 µM [rising, partial curve] |
| C1COC(NC(C2CC2)C2CC2)=N1 | 23.3% and 49.3% | 32.2% and 52.4% | 2.51 µM [rising, full curve, poor fit] |
| O=c1c(-c2cccc(F)c2)nc2cncnc2n1Cc1ccc(F)cc1 | 2.98% | -0.937% | 0.2 µM [rising, full curve, poor fit] |
| c1ccc2cc(C3=NCCN3)ncc2c1 | 28.7% | 39.4% | 14.1 µM [rising, partial curve, poor fit] |
| CN(Cc1ccco1)c1nc(-c2cccnc2)nc2ccccc12 | 7.24% | 10.9% | 3.98 µM [rising, partial curve] |
| O=c1c(-c2ccccc2)nc2cnc(N3CCOCC3)nc2n1Cc1cccs1 | 28.7% | 30.1% | 7.94 µM [rising, full curve, poor fit] |
